PubChem BioAssay AID686979 (National Center for Advancing Translational Sciences (NCATS), 2013)
The whole screen tested about 420,000 compounds, of which about 50,000 (12%) were called active. The inconclusive results got no clear call from the source; some entries with a clear call stand among them for comparison. The call rests on the fitted dose curve; in most records, active means well fitted inhibition curve with a large enough effect; inconclusive means small, poorly fitted or top-dose-only effect; inactive means flat fitted curve, though single readings scatter. Potencies of inconclusive entries are left out as doubtful fits.

Assay: qHTS for Inhibitors of human tyrosyl-DNA phosphodiesterase 1 (TDP1): qHTS in cells in presence of CPT; further: nearly all actives have a fitted effect of over 55% in size
Conditions: chicken DT40 Tdp1-/-;hTDP1 cells + 20 nM CPT, ATP luminescence, 48 h; activity change, negative = growth inhibition: at 46.2 µM (top of the series) unless noted
In short: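 Chicken DT40 Tdp1-/- cells stably complemented with human TDP1 were seeded at 400 cells/well in medium containing 20 nM camptothecin, exposed to pin-transferred compounds, and grown at 37 °C for at least 48 hr. Viability was read as ATP luminescence.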
On the % scale 0 is the no-effect control and ±100 the full control effect; potency means the concentration at half of the fitted maximal effect; tags describe the fitted curve by direction and shape.

Row | Structure (SMILES) | Potency | activity change, negative = growth inhibition
1 | CCN(CCCNC(=O)CNC(=O)c1nn(-c2ccc(OC)cc2OC)c(=O)c2ccccc12)c1cccc(C)c1 | inconclusive [inhibitor, single point] | 
2 | Fc1ccc2nc3n(c2c1F)CCCCCC3 | inactive | 
3 | COc1ccc(NC(=O)c2cccnc2Nc2ccccc2)cc1 | inconclusive [inhibitor, single point] | 
4 | CCOc1ccc(NC(=O)CN(C)C(=O)c2cc(C3CC3)nn2-c2ccccc2)cc1OCC | inconclusive [inhibitor, single point] | 
5 | NC(=NCCc1c[nH]c2ccccc12)NS(=O)(=O)c1cc(F)ccc1F | inconclusive [inhibitor, single point] | 
6 | COc1cccc(C(=O)N(Cc2ccco2)Cc2cc3cccc(C)c3[nH]c2=O)c1 | inconclusive [inhibitor, single point] | 
7 | CN(C)Cc1c(C(=O)N/N=C/C2CC=CCC2)nnn1-c1nonc1N (centres undefined) | inactive | 
8 | Cc1ccc(C)c(-n2c(-c3ccco3)n[nH]c2=S)c1 | inactive | 
9 | O=C(COC(=O)C1CCCC1)NCc1ccc(Cl)cc1 |  | inconclusive: -22% [inhibitor]
10 | COc1cccc(C(=O)NCCN2CCC(n3c(=O)[nH]c4ccccc43)CC2)c1 | inactive | 
11 | CC(=O)OCCc1[nH]c2ccccc2c1C | inactive | 
12 | Cc1cc(C)cc(N2CC(C(=O)OCC(=O)Nc3cc(C)on3)CC2=O)c1 (centres undefined) | inactive | 
13 | Cc1cc(/C=C/c2ccnc3ccccc23)ccc1N(C)C | active: 5.62 µM | 
14 | O=C1N(CCCN2C(=O)C3(OCCO3)c3ccccc32)c2ccccc2C12OCCO2 | inconclusive [inhibitor, partial curve, poor fit] | 
15 | CN(C(=O)c1ccc(NC(=O)Cc2ccc(NC(=O)C3CCCN(C(=O)c4ccccc4)C3)cc2)cc1)C1CCCC1 (centres undefined) | inconclusive [inhibitor, partial curve] | 
16 | Cn1c(=O)c2c(SCC(=O)N3CCOCC3)nc(-c3ccccc3Cl)nc2n(C)c1=O | inconclusive [inhibitor, single point] | 
17 | O=C(/C=C/c1ccc(Cl)c(Cl)c1)NC1=NCCS1 | inactive | 
18 | S=C(NCCCN1CCOCC1)N1CCN(c2nc(-c3ccccc3)cs2)CC1 | inconclusive [inhibitor, single point] | 
19 | COc1ccc(OC)c(NC(=O)C2(C)CCN2CCc2ccccc2)c1 (centres undefined) | active: 23.1 µM | 
20 | CCOC(=O)c1c(C)oc2ncnc(Nc3ccc(F)cc3Cl)c12 | inactive | 
21 | CCCCCC(=O)N1C[C@H](n2cc(COC(=O)c3ccccc3)nn2)[C@@H](O)C[C@@H]1c1ccc(OC)cc1 | active: 20.6 µM | 
22 | COc1ccc(C)cc1NC(=O)C(OC(=O)c1cc(C)oc1C)c1ccccc1 (centres undefined) | inconclusive [inhibitor, partial curve] | 
23 | CCOc1ccc(-c2c(C(=O)N/N=C(\C)c3cccnc3)nnn2-c2nonc2N)cc1 | inactive | 
24 | CCOC(=O)C/C(C)=N\Nc1ccc([N+](=O)[O-])cc1[N+](=O)[O-] | inconclusive [inhibitor, partial curve] | 
25 | CCCc1c(C(=O)Nc2ccc(F)cc2)cnn1-c1ccccc1 | active: 14.6 µM | 

Row | Structure (SMILES) | Potency | activity change, negative = growth inhibition
26 | COc1cccc(/C=C2\SC(N3CCC(C)CC3)=NC2=O)c1OC | inconclusive [inhibitor, single point] | 
27 | Cc1cc(C)cc(NC(=O)CN2C(=O)CSc3ccc(S(=O)(=O)N(C)C)cc32)c1 | active: 20.6 µM | 
28 | O=c1c2ccccc2nc(SCCN2CCCCC2)n1CCc1ccccc1 | inconclusive [inhibitor, single point] | 
29 | COc1cccc(Nc2ncc3ncc(=O)n(C[C@H]4CCCO4)c3n2)c1 | inconclusive [inhibitor, single point] | 
30 | COc1ccccc1CNC(=O)CS(=O)(=O)c1cccc2nsnc12 | inactive | 
31 | COCc1nnc(NC(=O)c2ccccc2Oc2ccccc2)s1 | inconclusive [inhibitor, single point] | 
32 | Cc1ccc(-c2nc3n(n2)C(c2ccccc2C)C=C(c2ccc(Cl)cc2)N3)cc1 (centres undefined) | inconclusive [inhibitor, partial curve] | 
33 | COc1cc(C(=O)NCC(c2ccc(N(C)C)cc2)N2CCc3ccccc32)cc(OC)c1OC (centres undefined) | active: 7.31 µM | 
34 | Cn1c(CO)cnc1SCC(=O)c1ccc(Br)cc1 | inactive | 
35 | Cc1ccc(CN2C(=O)c3ccccc3Sc3ccc(C(=O)NC4CCCCC4)cc32)cc1 | inactive | 
36 | COc1cc(C(=O)Nc2nnc(S(=O)(=O)N(C)c3ccccc3)s2)cc(OC)c1OC | inconclusive [inhibitor, single point] | 
37 | COc1ccc(CNC(=O)CC[C@H]2O[C@@H](n3ccc(=O)[nH]c3=O)[C@H](O)[C@@H]2O)cc1 | inactive | 
38 | Cc1ccc(NC(N)=S)cc1C | inconclusive [inhibitor, partial curve] | 
39 | O=[N+]([O-])c1ccc(/C=N/Nc2nc(N3CCCCCC3)nc(N3CCCCCC3)n2)o1 | active: 25.9 µM | 
40 | O=CN1CCN(C(=O)COc2ccc(Cl)cc2Br)CC1 | inactive | 
41 | CCCCn1c(SCC(=O)/C(C#N)=C(\C)N)nc2ccccc2c1=O | inconclusive [inhibitor, single point] | 
42 | COCCn1c(C)cc(C(=O)COC(=O)c2cc3c(s2)CCC3)c1C | inconclusive [inhibitor, single point] | 
43 | O=C(c1ccccc1)c1ccc(C(=O)N2CCCC(C(F)(F)F)C2)cc1 (centres undefined) | inconclusive [inhibitor, single point] | 
44 | CC(C)(C)OC(=O)CNC(=O)c1[nH]cnc1C(=O)NC(c1ccccc1)c1ccccc1 | active: 23.1 µM | 
45 | CC(C)(C)CC(=O)Nc1ccc(-c2cn3cccnc3n2)cc1 | inconclusive [inhibitor, partial curve, poor fit] | 
46 | COc1ccc(CNC(=O)c2cc3c(=O)[nH]c4ccc(C)cc4c3s2)c(OC)c1 | active: 16.4 µM | 
47 | COc1cccc(C(=O)NCCSCc2ccccc2Cl)c1 | inactive | 
48 | CCc1ccc(C2=CC(c3cc(Br)ccc3F)n3ncnc3N2)cc1 (centres undefined) | active: 23.1 µM | 
49 | Cc1nnc(C)n1/N=C/c1ccc(O)cc1 | inactive | 
50 | CC(/C=N/n1c(-c2cccnc2)n[nH]c1=S)=C\c1ccccc1 |  | inconclusive: -31.8% [inhibitor]

Row | Structure (SMILES) | Potency | activity change, negative = growth inhibition
51 | CCOc1ccc(Nc2nnc(SCc3nc4ccccc4c(=O)[nH]3)s2)cc1 | active: 18.4 µM | 
52 | Cn1c(SCC(=O)Nc2ccccc2C(F)(F)F)nc2c(c1=O)SCC2 | active: 16.4 µM | 
53 | Oc1ccccc1-c1nnc(COc2ccc(Cl)cc2Cl)o1 | active: 20.6 µM | 
54 | CCC(C)(C)NC(=O)C(c1ccc(OC)cc1)N(Cc1ccccc1)C(=O)CCC(=O)Nc1cc(C)on1 (centres undefined) | inconclusive [inhibitor, single point] | 
55 | CC(C)Cc1nc2cc(NS(=O)(=O)N(C)C)cc(C(=O)N3CCSCC3)c2n1C |  | inactive: -3.2% [at 9.04 µM]
56 | O=C(Nc1ccc(F)cc1)N[C@@H]1CC[C@@H](CCn2cc(-c3ccc(F)cc3)nn2)O[C@@H]1CO |  | inconclusive: 2.38% [inhibitor]
57 | Clc1nc(-c2ccccn2)nc2scc(-c3ccccc3)c12 | inconclusive [inhibitor, single point] | 
58 | CC(NC(=O)c1ccc(Cl)cc1)c1nnc(SCC(=O)NC2=NCCS2)n1C (centres undefined) | inactive | 
59 | COC(=O)C1=C(C(=O)OC)SC2(S1)C(C(=O)OC)=C(C(=O)OC)SC1=C2c2cccc(C)c2NC1(C)C | active: 9.2 µM | 
60 | CSc1ccc(CN2CCC2(C)C(=O)Nc2ccc3c(c2)OCO3)cc1 (centres undefined) | active: 29.1 µM | 
61 | Cc1ccc(-c2nc3[nH]c(=O)cc(NC(=O)c4cccs4)n3n2)cc1 | inconclusive [inhibitor, partial curve] | 
62 | Cc1ccn2c(Nc3ccc(F)cc3)c(-c3ccc(C)o3)nc2c1 | active: 16.4 µM | 
63 | N#CC1(C#N)[C@@H](C(=O)C23CC4CC(CC(C4)C2)C3)C12CCOCC2 | inactive | 
64 | CN(CCC1CCOCC1)C(=O)C1CCC(=O)N(CCc2cccc(F)c2)C1 (centres undefined) | inactive | 
65 | CN1CCN(C(c2ccccc2)c2ccccc2)CC1 | inconclusive [inhibitor, partial curve, poor fit] | 
66 | CC1(C)C2CCC1(CS(=O)(=O)Nc1ccc(S(=O)(=O)NC3CCCCC3)cc1)C(=O)C2 (centres undefined) | inconclusive [inhibitor, single point] | 
67 | Fc1ccc(-c2nn(-c3ccccc3)cc2CNCc2ccccc2)cc1 | inconclusive [inhibitor, single point] | 
68 | O=c1[nH]c(-c2ccc(F)cc2)nc2c1sc(=S)n2-c1ccccc1 | inconclusive [inhibitor, partial curve] | 
69 | COc1ccc(CNC(=O)C2CCN(c3nc4ccccc4[nH]3)CC2)c(OC)c1 | active: 18.4 µM | 
70 | COc1ccc(C2=NN(CN3C(=O)C(=O)c4ccccc43)C(c3ccc(C)cc3)C2)cc1 (centres undefined) | active: 18.4 µM | 
71 | Cc1cc(C)c2[nH]c(=O)c(C(c3nnnn3Cc3ccc4c(c3)OCO4)N3CCCCC3)cc2c1 (centres undefined) | inconclusive [inhibitor, partial curve] | 
72 | CC1=NN(c2ccccc2)C(=O)/C1=C/c1cccc(C)c1 | inconclusive [inhibitor, single point] | 
73 | CC(Nc1ccccc1CO)C(=O)Nc1cccc(Cl)c1Cl (centres undefined) | inactive | 
74 | Cc1nnc(SCC(=O)N(Cc2ccccc2)C(C)(C)C)[nH]c1=O | inactive | 
